This is one part of the list.

This assay deals with PfSIP2 AP2 domain 1 (GST-tagged). Nature of the assay: gcPBM binding intensity (ln(normalized median fluorescence intensity)); higher = stronger DNA binding. Put shortly: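 Using an Agilent 4 × 180k array, primer-extended double-stranded 36-bp intergenic genomic probes and negative controls were exposed for 1 h to GST-fused P. falciparum DNA-binding domains expressed in E. coli. Binding was carried out in 1× PBS with 1% milk, 0.2 mg/ml BSA, 0.5% salmon testes DNA and 0.03% Triton X-100, and protein was detected with Alexa488 anti-GST antibody and a 488 nm scan. Binding intensity is the highest Masliner-normalised natural-log median intensity across replicate spots of either probe orientation.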
For “TTATTTTCTTTCTATGCACACGCACGTATTTGCCCA [CACACA_site9104]”, the “gcPBM binding intensity (ln)” value stood at 7.91.
For TATAGTAAAATTAGGGTGCTTTTGTAACAAAAAAAA the value was 8.74; for “TGCTTCATAAATAAAACATGCAATATAGAAATTAAA [TGCATGCA_site690]”, 6.88.
As for “AGAGTAGGAAATGGAAAAATAAAATAAATAAATAAA [XGTACX_negctrl_site69]”, the “gcPBM binding intensity (ln)” value was 6.84.
Then “AAATATATATACCACACACACATACCTCTATTTGTA [CACACA_site1854]”, with 7.05.
For “CGTATTTTAATATTTACACACTTATTTTTTATATAA [CACACA_site125]” the value was 7.1; for “TTTTGTAAAAGGTATATATATATATATATATATATA [GTGCAC_negctrl_site734]”, 9.66.
For “TTTATATAGAAAAATTGTACGAATTACTTTTTTATA [XGTACX_site6843]” the value was 6.66; for “TATAGCATATTTCACACACACATAATGAATATTATA [CACACA_site3545]”, 6.95.
As for “TTTAACGTTGAATATACACACATATATTTATTTATA [CACACA_site7695]”, the “gcPBM binding intensity (ln)” value came out at 6.91.
For “AAAATGTACTTTTTCTAAAGAGTAATGATGCTTGAT [CACACA_negctrl_site1124]” the value was 6.97; for “AATCCTTTAAAACACACACACAAAAAAAAAAAAAAA [CACACA_site642]”, 7.15.
Consider “ATGAAATATGCACAGTGTACTTTTATGAGGAACATA [XGTACX_site426]”, for which the “gcPBM binding intensity (ln)” value was found to be 7.44.
Then “TTTTTAATACAAAAAAAATAATATGTTATATTTCAA [CACACA_negctrl_site35]”, with 6.72.
As for “AATTAACCGTGACACACACACATATAAATATAAATA [CACACA_site7790]”, the “gcPBM binding intensity (ln)” value was 7.38.
For “TGCCCTTTGGTTATAACACACATGCACACGTAAATA [CACACA_site7750]” the value was 7.71.
For “GGGAATATATAAGATACACACACAAATTAAATATAA [CACACA_site8898]”, the “gcPBM binding intensity (ln)” value amounted to 7.06.
With “TATATATATATATATACACACACACCCACCAAAGCG [CACACA_site7904]”, the “gcPBM binding intensity (ln)” value turned out to be 9.32.
Then “AATAAAATAATAGGCACACATATATATATATATTAT [CACACA_site273]”, with 7.38; and “ATATATCTACATATATGTACATATATGTATATGTAT [XGTACX_site5432]”, with 7.21.
For “ATATCCTACTTCTAGTGTACATATATGGACTGATGA [XGTACX_site3683]”, the “gcPBM binding intensity (ln)” value was determined as 7.19.
For “TACAATTTATGACACACACACAATAATACCTATATA [CACACA_site6704]” the value was 7.16.
For “TATATATATATATGTGCACACATAAAGATATTATTT [CACACA_site3734]” the value was 9.38; for “AAAAAAAAAAAACACACACACACACTAGTACATACA [CACACA_site4551]”, 7.33; for “TATATATATATATATGTGCGCATATATTTTTTTGTA [GTGCAC_site9983]”, 9.52.
Turning to “ACAAAATTTACAAAATGTACAAAATATACAAAATAT [XGTACX_site6465]”, the “gcPBM binding intensity (ln)” value turned out to be 6.99.
Regarding “ACTAGACAAAATATAATGCACACTATTATTTTTATT [CACACA_site2726]”, the “gcPBM binding intensity (ln)” value worked out at 7.4.
For “AATAATATACATATATATATTATATTGTAATTTTGT [TGCATGCA_negctrl_site1]” the value was 7.11; for “TTATATCAAGGGAATGCATGCATATCGTTTTGTATT [TGCATGCA_site327]”, 6.89.
For CATGAGGTATAAAAGGTGCAAATTAATGAGAACATT the value was 11.1; for “TATTCTTATATATATACACACACAAAATATCTACAA [CACACA_site8144]”, 7.16; for “TTGCATTGATCAAACATACACACATGGTTAATAAAA [CACACA_site2084]”, 7.12.
For “TATTTCTCACTGTATGGTACAGATATAAATTTTTAT [XGTACX_site8776]” the value was 7.02; for “CACAAATAAATATTCACACATATATGTCTTATATAT [CACACA_site5323]”, 6.91; for “ATTACAATAAATTCGTGTACATGATACCGCCGCTAC [XGTACX_site8997]”, 6.89.
“ATCAAATTTTTGTTATGTACACAATCATTTAATAAA [XGTACX_site810]”: the “gcPBM binding intensity (ln)” value was 7.22.
Then “TAATTATTATTAAATACACACACATACCTCCATGTT [CACACA_site9134]”, with 6.89; and “AAAAAAAAAAAATAGGTGCGTGTTACTTTTGTATGC [GTGCAC_site9524]”, with 9.97.
For “ATATATATGTATAATCGTACAGTTAACGTATTCTTA [XGTACX_site5649]”, the “gcPBM binding intensity (ln)” value turned out to be 7.09.
In the case of “AAACAGATAAATAAAAGTACACATTAAAAGGTAGCA [XGTACX_site4150]”, the “gcPBM binding intensity (ln)” value came out at 6.87.
Then “GGATTTTAATGAACACGTACATAAAATTAAATAAAT [XGTACX_site7023]”, with 6.97; and “TAATTAATTTCTTTACGTACATAATTAATATATATA [XGTACX_site7372]”, with 7.24.
For “GGGAGGATAGTTCACAGTACCCAGGAAATCTACGGA [XGTACX_site2553]” the value was 6.89.
Then “GGTTCATAATATGGTTGTACATAAATATATATATAT [XGTACX_site7583]”, with 9.07.
Regarding “TAACAAGGTTTATATGCATGCAAACATAACCAAAAA [TGCATGCA_site824]”, the “gcPBM binding intensity (ln)” value is 6.92.
Turning to “AATGGGTAAACATACACACACACATCTATATTTATA [CACACA_site7025]”, the “gcPBM binding intensity (ln)” value was 6.77.
With “TACTATATCATTTATTGTACAATATTTCTTCAGAAA [XGTACX_site1008]”, the “gcPBM binding intensity (ln)” value is 7.12.
For “CTTTGCCTTAAAAAGGAACACACATGCTTTTTTTAG [CACACA_site8219]” the value was 6.92; for “TATAAAAGACTAAATATTATAGAAATATAAATATAA [TGCATGCA_negctrl_site237]”, 6.66.
As to “TTTTTTTTTTTAAGTTCACACATAAATTCGATTTAC [CACACA_site5057]”, the “gcPBM binding intensity (ln)” value came to 6.9.
Then “ACCGTTTTTGTGTAATGTACAAAATTTCTGACAGTG [XGTACX_site4999]”, with 7.15; and “ATAATTTGTAAAAGGAGTACAAAACCATACTTTTTT [XGTACX_site6076]”, with 7.29; and “AAAGGAAAATTAAAAAGTACACATTTGAAAAAAAAA [XGTACX_site2724]”, with 6.99.
As for “ATGTATTTAATAAGAACACACATATATTTAATTTAA [CACACA_site5606]”, the “gcPBM binding intensity (ln)” value stood at 6.79.
Then “TTTATACATTTATATTGTACTAATTCGATTTTATAT [XGTACX_site5424]”, with 6.97; and “AATGATCATATATACACACACACAAAAAAAAAAAAA [CACACA_site4009]”, with 7; and “AAAGAAAAAGAAAAAGAAAAATTAGAATATAAAATA [CACACA_negctrl_site792]”, with 6.3.
Regarding “ATAAGAAATGTAACTTGTACATAAGGATATATATTT [XGTACX_site236]”, the “gcPBM binding intensity (ln)” value was found to be 6.86.
Then “CATTTATATAAATACACACACACAAAAAAAAAAAAA [CACACA_site5459]”, with 6.97; and “TAATAATAAAAAAATAGTACATAAATAAAAATAATA [XGTACX_site4774]”, with 7.13.
For “ATTTATAAAATTAATGCACACATCAGCATTTATAAA [CACACA_site1025]” the value was 7.22; for “TAAATACATAGATGTACACACATTACAGATGTACAT [CACACA_site4692]”, 7.09; for “TATAAAATAAAAAATAAATATCTATATATATATATA [TGCATGCA_negctrl_site351]”, 9.12.
Then “ATAAAGCACACCGACACACACATATTTATATTTATA [CACACA_site6620]”, with 7.22.
Take “TTGTGTTATCCTTTTTTAGATCAACTATTTTTATTC [CACACA_negctrl_site145]”: the “gcPBM binding intensity (ln)” value amounted to 6.94.
On to “GTCCCTATAAGGGGAACACACATAAATGAATATATA [CACACA_site1024]”, for which the “gcPBM binding intensity (ln)” value amounted to 6.87.
For TTTTTTTGTTAAAAGGTGCTAATATATATAAGTGCT the value was 9.03.
Turning to “TTATATATTTATATATGTACACATTTTACCATTTTT [XGTACX_site2142]”, the “gcPBM binding intensity (ln)” value turned out to be 6.9.
“AAATTTATAAAGAACACACACATATAAATATAAATA [CACACA_site6174]”: the “gcPBM binding intensity (ln)” value is 6.89.
Turning to ATTTATTTCTTGTTAGTGCACTTTCTTTGGTAAAAT, the “gcPBM binding intensity (ln)” value was 11.1.
For “TTAAAATGTTGTAACGTGCACATTTTGTGGAAATCA [GTGCAC_site9559]” the value was 8.55.
Consider “TTATAATTGTAAGGTAGTACATATAAATCAAATAAT [XGTACX_site7190]”, for which the “gcPBM binding intensity (ln)” value came to 7.34.
Then “TATACAGATGGACACACACACATATATATATATATA [CACACA_site5272]”, with 9.34; and “ATACAAACAATTATTTGTACATAAAATTTTTTTTTT [XGTACX_site90]”, with 6.92.
Consider “ATGAATCTTTTAAAAAGTACATGTGAAAAAAATAAA [XGTACX_site49]”, for which the “gcPBM binding intensity (ln)” value amounted to 7.22.
Then “ATATTTATATATTGCACACAAAAAAAAAAAAAAATC [CACACA_site1629]”, with 7.6.
For “TATATATATATGTAATGTACATAAATTTTATACCTT [XGTACX_site6991]” the value was 9.07.
Then “CAGTAGTATATACTATGTACATATTTATATTATATT [XGTACX_site4964]”, with 7.07; and “TAATAAATAAAAATAGAACACACATATGTTTTTTTT [CACACA_site9185]”, with 6.68; and “AATATAAATAAACACACACACATATATATATATATT [CACACA_site2906]”, with 7.54.
On to “AAAAAAAAAAAAAAATGTACATATATATAAATAAAA [XGTACX_site5574]”, for which the “gcPBM binding intensity (ln)” value is 7.35.
For “TATATTCATAATATTACACACGTTCATTTATTTTAA [CACACA_site2031]” the value was 7.12; for “GAGTGAAATATGCAAACACACACGAGAAAAATGTAT [CACACA_site3196]”, 7.19.
For “TATGGTTTTAAAAAATGTACGCAAGTGCGTTAATTT [XGTACX_site3945]” the value was 7.39; for “AACAACCAAACGCACACACACAAAAAAAAAAATATA [CACACA_site6326]”, 7.62.
Then “TTATATGCATAAAAAGGTACACATATATAAATAAAT [XGTACX_site6894]”, with 7.12.
Turning to “ACATTTAAAATTTATGCATGTGGTGTTTTGTATATA [TGCATGCA_site534]”, the “gcPBM binding intensity (ln)” value turned out to be 7.26.
With “TTTGTGTAGGTGTGTAGTACATATAACTTATAACAT [XGTACX_site7885]”, the “gcPBM binding intensity (ln)” value worked out at 7.43.
For “TAATAAAATGTACACGCATGCAATAGAATATAAAGT [TGCATGCA_site905]” the value was 7.66.
